The source of these data is the supplement of paper PMC3334620.

In all, about 33,000 sequences were measured (“E-score (-0.5 to 0.5)”: median about -0.017, highest 2% from about 0.3 on). The list shows a part of the results.

The target of the assay is T1, Sut1 (UniProt P53032).
T1 sequence: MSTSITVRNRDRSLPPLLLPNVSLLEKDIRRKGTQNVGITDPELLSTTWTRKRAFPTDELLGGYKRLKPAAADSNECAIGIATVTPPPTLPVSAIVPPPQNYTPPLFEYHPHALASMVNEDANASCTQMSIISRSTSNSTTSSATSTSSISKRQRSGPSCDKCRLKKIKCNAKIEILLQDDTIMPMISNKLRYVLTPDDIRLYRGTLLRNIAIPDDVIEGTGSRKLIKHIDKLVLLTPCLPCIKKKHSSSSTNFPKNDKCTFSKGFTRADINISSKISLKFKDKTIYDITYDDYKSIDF
Briefly: PBM E-score (8-mer binding enrichment) (E-score (-0.5 to 0.5)); higher = stronger / more preferred TF binding; most listed sequences are background and not binding sites. Conditions: protein concentration: 200 nM; construct: GST-full length. The gist of the method: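 For each ungapped eight-base word taken together with its reverse complement, the Universal PBM Analysis Suite assigned an E-score. Binding data came from GST-tagged yeast transcription factors, applied at about 100-200 nM, on universal all-10-mer Agilent arrays made double-stranded by primer extension. Fluorescent anti-GST marked bound protein, and scans were normalised with masliner.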
In the case of GTCCATTA, the “PBM E-score” value came out at 0.176. The figure for CCCGGAGC is 0.406; for TCGCGTCA it is -0.0854. In the case of ATGTCTGC, the “PBM E-score” value is -0.282. For GCACTATA, the “PBM E-score” value was -0.0711. Consider AACGACCC, for which the “PBM E-score” value is -0.156. As to CAGATGGA, the “PBM E-score” value was -0.0312.

For the sequence CGCGATAA, the “PBM E-score” value stood at 0.137. Take TGACAGAA: the “PBM E-score” value was 0.117. For ATGAAAAC, the “PBM E-score” value worked out at 0.219. The figure for AACAGGTC is -0.249; for ACTACACA it is -0.00137; for GGGTGATA it is -0.125. In the case of CTCCTAAG, the “PBM E-score” value was -0.111. As for CACAGACA, the “PBM E-score” value is -0.0065. Take CCGATAAA: the “PBM E-score” value worked out at 0.343. Take ATGCATTG: the “PBM E-score” value was -0.0575. Under AGGGGCCG stands -0.272.

As for ATTACGCA, the “PBM E-score” value was found to be 0.0411.

For CTATGCCC, the “PBM E-score” value is -0.247.

Take AAACTGGG: the “PBM E-score” value is -0.0399.

On to GACCATCC, for which the “PBM E-score” value was -0.0701. The figure for ATTCCATG is 0.0438; for AAACCTCT it is 0.0749; for CGAGGTCC it is 0.121.

Consider ACTCCGTG, for which the “PBM E-score” value is 0.473. On to ACCTTGTC, for which the “PBM E-score” value was -0.206. With AGAGTTCC, the “PBM E-score” value is -0.0848. As for AGAGTCCG, the “PBM E-score” value was found to be 0.449. For the sequence GATATACA, the “PBM E-score” value turned out to be 0.194. CCTTGGTA: the “PBM E-score” value was 0.102. On to CACGTCGA, for which the “PBM E-score” value was -0.116. For the sequence AGGTAGGC, the “PBM E-score” value is -0.131. The figure for AGCACTAA is 0.191; for CATTGAGG it is -0.0783. Take CGGGATTC: the “PBM E-score” value was found to be 0.0676.

As to CTTTGGTC, the “PBM E-score” value amounted to 0.146. On to AACGCTAA, for which the “PBM E-score” value was -0.0697. AGTTCTCC: the “PBM E-score” value was determined as 0.0174. In the case of ATCCATGG, the “PBM E-score” value is -0.201. For GCTTGTAA, the “PBM E-score” value turned out to be 0.18.

On to CTAAATCC, for which the “PBM E-score” value amounted to 0.193. As for GAGATCAA, the “PBM E-score” value was determined as 0.0659. Take CTCACAAG: the “PBM E-score” value was -0.131.

Regarding CGTATATA, the “PBM E-score” value was found to be 0.219. Turning to CCCCGAAG, the “PBM E-score” value came to 0.0869.

In the case of CCTATAGA, the “PBM E-score” value was -0.0234. For the sequence AAGCTGAT, the “PBM E-score” value worked out at 0.0247.

Regarding GAAGGGAC, the “PBM E-score” value was -0.158.

With ATGTTTCA, the “PBM E-score” value is 0.0326. Under CCGGGACC stands 0.138. Under AAGACCAT stands 0.0588; under GGATCAAA, 0.0395; under AGGGAGAG, -0.141. For the sequence GACAGGTA, the “PBM E-score” value worked out at 0.0384. With GGATCGCC, the “PBM E-score” value was -0.233. As for AAAGACGA, the “PBM E-score” value stood at 0.123. CACAGCAC: the “PBM E-score” value is -0.205. In the case of ACAAGTAC, the “PBM E-score” value was -0.0657. In the case of AGGACAAG, the “PBM E-score” value was -0.238. Under AATTTTCG stands 0.0639; under GGCTACAC, 0.012.

As to CTATCTTC, the “PBM E-score” value came out at 0.124. For the sequence ACGCGAGA, the “PBM E-score” value was -0.035. Under GCAAACGA stands 0.0369. With AGGACTAT, the “PBM E-score” value was -0.102. Under GAAGCGGA stands 0.103; under GAGCAAAC, -0.0639; under CCCCTAAC, -0.187. Take CCCGGCGA: the “PBM E-score” value was -0.00069.

Take CATCACAG: the “PBM E-score” value was -0.218. Under ATGACCAT stands 0.00046; under AACGACGT, -0.0293; under CTGCATGA, -0.246.

For CACGAAGG, the “PBM E-score” value is -0.121.

For the sequence AACGCCAT, the “PBM E-score” value is -0.0733. Under CCAACGCG stands -0.023; under CATTGACA, -0.237; under AGTATATG, 0.00722. With AGGGCGTG, the “PBM E-score” value was -0.179. Turning to CGCCCGGC, the “PBM E-score” value was -0.0194. Consider CCCTCGTA, for which the “PBM E-score” value was -0.2.

Turning to GGAACCGA, the “PBM E-score” value came to 0.144. Under CGTGTATC stands 0.0285.

Turning to CCAATGAA, the “PBM E-score” value was -0.134. For CCCCCTAC, the “PBM E-score” value is -0.243. For the sequence ATATAGTC, the “PBM E-score” value is 0.215. ACCACTGA: the “PBM E-score” value was -0.0449. As for AAGATTCC, the “PBM E-score” value worked out at 0.153. Under GCTGAACC stands -0.153. With ACACCCGA, the “PBM E-score” value was -0.0273.

As for ATGAAATC, the “PBM E-score” value is 0.179. As to GGAGTACC, the “PBM E-score” value turned out to be 0.143. The figure for GGAATTAC is 0.181.
